Laboratory results from patent US8377884B2, “Variants of C-type natriuretic peptides” (Biomarin Pharmaceutical Inc., priority 2007, dated 2013).
“Also recorded” adds a separate entry of the source. Where two headings read alike, the source gives them in different places. At least one peptide structure holds a part that was inferred or is arguable (an end, a ring closure or a residue). Some compounds share one wording; it may come from a single statement. Bridge positions count the residues as written; N and C are the ends. Ends that are not written are not given here. Peptide text beside a SMILES is read from it. * marks the point of attachment. MeO(CH2CH2O)23CH2CH2CO = COCCOCCOCCOCCOCCOCCOCCOCCOCCOCCOCCOCCOCCOCCOCCOCCOCCOCCOCCOCCOCCOCCOCCOCCC(=O)*

Columns and labels:
[1] = biological target: T1, NPR-B (Mus musculus, UniProt Q6VVW5); assay: Stimulation of cGMP production in NIH3T3 cells; format: cell-based, Murine
T1 construct: Murine NIH3T3 cells express endogenously the CNP signaling receptor, NPR-B; endogenous in cells; host or cells: NIH3T3 (murine fibroblasts)
T1 sequence (Q6VVW5 17-1047): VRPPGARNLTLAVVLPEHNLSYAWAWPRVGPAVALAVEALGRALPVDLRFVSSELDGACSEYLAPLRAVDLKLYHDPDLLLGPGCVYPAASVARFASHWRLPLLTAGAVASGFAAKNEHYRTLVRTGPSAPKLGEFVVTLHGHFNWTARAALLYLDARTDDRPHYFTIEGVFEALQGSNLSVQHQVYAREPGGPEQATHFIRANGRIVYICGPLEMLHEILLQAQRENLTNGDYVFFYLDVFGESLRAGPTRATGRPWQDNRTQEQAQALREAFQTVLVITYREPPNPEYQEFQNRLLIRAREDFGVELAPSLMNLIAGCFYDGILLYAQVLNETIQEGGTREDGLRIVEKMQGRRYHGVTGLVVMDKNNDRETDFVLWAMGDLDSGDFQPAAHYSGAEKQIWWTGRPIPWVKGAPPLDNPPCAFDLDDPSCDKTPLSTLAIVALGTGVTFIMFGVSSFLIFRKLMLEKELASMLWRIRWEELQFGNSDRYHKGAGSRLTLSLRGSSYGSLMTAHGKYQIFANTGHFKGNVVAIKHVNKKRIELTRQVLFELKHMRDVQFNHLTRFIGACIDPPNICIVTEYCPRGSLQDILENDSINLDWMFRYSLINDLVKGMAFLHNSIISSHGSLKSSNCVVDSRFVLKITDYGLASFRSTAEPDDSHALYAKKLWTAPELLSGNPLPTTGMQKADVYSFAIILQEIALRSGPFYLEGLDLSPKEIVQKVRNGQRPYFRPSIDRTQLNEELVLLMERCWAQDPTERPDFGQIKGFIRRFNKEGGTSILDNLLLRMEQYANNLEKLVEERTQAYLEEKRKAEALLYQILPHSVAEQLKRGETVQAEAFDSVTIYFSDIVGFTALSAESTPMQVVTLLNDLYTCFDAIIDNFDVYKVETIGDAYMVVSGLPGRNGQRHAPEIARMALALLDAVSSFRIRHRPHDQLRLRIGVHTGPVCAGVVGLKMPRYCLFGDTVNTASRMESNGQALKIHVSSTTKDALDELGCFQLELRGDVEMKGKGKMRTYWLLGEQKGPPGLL

[2] = test system: plasma cGMP; assay: Plasma cGMP concentration in rats after i.v. or s.c. administration; format: in vivo; conditions: for plasma levels of cGMP compared with CNP22 (in words): i.v., 20 nmol/kg, 30, 60 and 90 minutes; for plasma concentrations of cGMP compared with CNP22 (in words): s.c., 50 nmol/kg
[3] = test system: wild-type femurs; assay: Mouse organ culture model, longitudinal femoral growth; conditions: femurs of 3-day old wild-type mice, treated every two days for 8 days

With `CC[C@H](C)[C@@H]1NC(=O)[C@H](CCCNC(=N)N)NC(=O)[C@H](CC(=O)O)NC(=O)[C@H](CC(C)C)NC(=O)[C@H](CCCCN)NC(=O)[C@H](CC(C)C)NC(=O)CNC(=O)[C@H](Cc2ccccc2)NC(=O)[C@@H](NC(=O)CNC(=O)[C@H](CCCCN)NC(=O)[C@H](CO)NC(=O)[C@H](CC(C)C)NC(=O)CNC(=O)[C@H](CCCNC(=N)N)NC(=O)[C@H](C)NC(=O)[C@H](Cc2c[nH]c3ccccc23)NC(=O)[C@H](C)NC(=O)[C@H](C)NC(=O)[C@H](CCCNC(=N)N)NC(=O)[C@H](CO)NC(=O)[C@H](CCCCN)NC(=O)[C@@H](NC(=O)[C@H](CC(=O)O)NC(=O)[C@@H](NC(=O)[C@H](CCCNC(=N)N)NC(=O)[C@H](CC(C)C)NC(=O)[C@@H](N)CC(=O)O)C(C)C)[C@@H](C)O)CSSC[C@@H](C(=O)O)NC(=O)CNC(=O)[C@H](CC(C)C)NC(=O)CNC(=O)[C@H](CO)NC(=O)[C@H](CCSC)NC(=O)[C@H](CO)NC(=O)CNC1=O` [CC] (H-DLRVDTKSRAAWARGLSKGCFGLKLDRIGSMSGLGC-OH; disulfide 20-36 (inferred); N-terminus and C-terminus assumed) the “NPR-B stimulation activity / cGMP production compared with wtCNP22 (in words)” value [1] was “comparable NPR-B stimulation activity as CNP22”.
In the case of `CC[C@H](C)[C@@H]1NC(=O)[C@H](CCCNC(=N)N)NC(=O)[C@H](CC(=O)O)NC(=O)[C@H](CC(C)C)NC(=O)[C@H](CCCCN)NC(=O)[C@H](CC(C)C)NC(=O)CNC(=O)[C@H](Cc2ccccc2)NC(=O)[C@@H](NC(=O)CNC(=O)[C@H](CCCNC(=N)N)NC(=O)[C@H](CO)NC(=O)[C@H](CC(C)C)NC(=O)CN)CSSC[C@@H](C(=O)O)NC(=O)CNC(=O)[C@H](CC(C)C)NC(=O)CNC(=O)[C@H](CO)NC(=O)[C@H](CCSC)NC(=O)[C@H](CO)NC(=O)CNC1=O` [AH] (H-GLSRGCFGLKLDRIGSMSGLGC-OH; disulfide 6-22 (inferred); N-terminus and C-terminus assumed), the “NPR-B stimulation activity / cGMP production compared with wtCNP22 (in words)” value [1] was “significantly greater cGMP production than wtCNP22”.
`CC[C@H](C)[C@@H]1NC(=O)[C@H](CCCNC(=N)N)NC(=O)[C@H](CC(=O)O)NC(=O)[C@H](CC(C)C)NC(=O)[C@H](CCCCN)NC(=O)[C@H](CC(C)C)NC(=O)CNC(=O)[C@H](Cc2ccccc2)NC(=O)[C@@H](NC(=O)CNC(=O)[C@H](CCCCN)NC(=O)[C@H](CO)NC(=O)[C@H](CC(C)C)NC(=O)CNC(=O)[C@H](CCCCN)NC(=O)[C@H](CCCCN)NC(=O)[C@H](CC(N)=O)NC(=O)[C@H](C)NC(=O)CNC(=O)[C@H](CCCCN)NC(=O)[C@H](Cc2ccc(O)cc2)NC(=O)[C@H](CCCCN)NC(=O)[C@H](CCCNC(=N)N)NC(=O)[C@H](C)NC(=O)[C@H](CC(N)=O)NC(=O)[C@@H]2CCCN2C(=O)[C@H](Cc2c[nH]cn2)NC(=O)[C@H](CCC(=O)O)NC(=O)[C@@H](N)CCC(N)=O)CSSC[C@@H](C(=O)O)NC(=O)CNC(=O)[C@H](CC(C)C)NC(=O)CNC(=O)[C@H](CO)NC(=O)[C@H](CCSC)NC(=O)[C@H](CO)NC(=O)CNC1=O` [Analog BL] was tested, and the “plasma levels of cGMP compared with CNP22 (in words)” value [2] was “much higher plasma levels of cGMP at 30, 60 and 90 minutes than i.v. administration of CNP22”, the “plasma concentrations of cGMP compared with CNP22 (in words)” value [2] was “substantially higher plasma concentrations of cGMP than s.c. administration of CNP22” and the “stimulation of longitudinal femoral growth (in words)” value [3] was “effective in stimulating longitudinal femoral growth”. For the same compound, the “NPR-B stimulation activity / cGMP production compared with wtCNP22 (in words)” value ([1]; listed as CNP37) was “equivalent NPR-B stimulation activity as wtCNP22”.
In the case of `CC[C@H](C)[C@@H]1NC(=O)[C@H](CCCNC(=N)N)NC(=O)[C@H](CC(=O)O)NC(=O)[C@H](CC(C)C)NC(=O)[C@H](CCCCN)NC(=O)[C@H](CC(C)C)NC(=O)CNC(=O)[C@H](Cc2ccccc2)NC(=O)[C@@H](NC(=O)CNC(=O)[C@H](CCCNC(=N)N)NC(=O)[C@H](CO)NC(=O)[C@H](CC(C)C)NC(=O)CNC(=O)[C@@H](N)CCCNC(=N)N)CSSC[C@@H](C(=O)O)NC(=O)CNC(=O)[C@H](CC(C)C)NC(=O)CNC(=O)[C@H](CO)NC(=O)[C@H](CCSC)NC(=O)[C@H](CO)NC(=O)CNC1=O` [AZ] (H-RGLSRGCFGLKLDRIGSMSGLGC-OH; disulfide 7-23 (inferred); N-terminus and C-terminus assumed), the “NPR-B stimulation activity / cGMP production compared with wtCNP22 (in words)” value [1] was “comparable NPR-B stimulation activity as CNP22”.
`CC[C@H](C)[C@@H]1NC(=O)[C@H](CCCNC(=N)N)NC(=O)[C@H](CC(=O)O)NC(=O)[C@H](CC(C)C)NC(=O)[C@H](CCCCN)NC(=O)[C@H](CC(C)C)NC(=O)CNC(=O)[C@H](Cc2ccccc2)NC(=O)[C@@H](NC(=O)CNC(=O)[C@H](CCCCN)NC(=O)[C@H](CO)NC(=O)[C@H](CC(C)C)NC(=O)CNC(=O)[C@H](CCCCN)NC(=O)[C@@H]2CCCN2C(=O)[C@H](CC(N)=O)NC(=O)[C@H](C)NC(=O)CNC(=O)[C@H](CCCCN)NC(=O)[C@H](Cc2ccc(O)cc2)NC(=O)[C@H](CCCCN)NC(=O)[C@H](CCCNC(=N)N)NC(=O)[C@H](C)NC(=O)[C@H](CC(N)=O)NC(=O)[C@@H]2CCCN2C(=O)[C@H](Cc2c[nH]cn2)NC(=O)[C@H](CCC(=O)O)NC(=O)[C@H](CCC(N)=O)NC(=O)CN)CSSC[C@@H](C(=O)O)NC(=O)CNC(=O)[C@H](CC(C)C)NC(=O)CNC(=O)[C@H](CO)NC(=O)[C@H](CCSC)NC(=O)[C@H](CO)NC(=O)CNC1=O` [CS] (H-GQEHPNARKYKGANPKGLSKGCFGLKLDRIGSMSGLGC-OH; disulfide 22-38 (inferred); N-terminus and C-terminus assumed) was tested, and the “NPR-B stimulation activity / cGMP production compared with wtCNP22 (in words)” value [1] was “comparable NPR-B stimulation activity as CNP22”.
“DLRVDTKSRAAWARLLQEHPNARKYKGANKKGLSKGCFGLKLDRIGSMSGLGC (disulfide 37-53 (inferred)) [Analog BM]” was tested, and the “NPR-B stimulation activity / cGMP production compared with wtCNP22 (in words)” value [1] was “equivalent NPR-B stimulation activity as wtCNP22”.
With `CC[C@H](C)[C@@H]1NC(=O)[C@H](CCCNC(=N)N)NC(=O)[C@H](CC(=O)O)NC(=O)[C@H](CC(C)C)NC(=O)[C@H](CCCCN)NC(=O)[C@H](CC(C)C)NC(=O)CNC(=O)[C@H](Cc2ccccc2)NC(=O)[C@@H](NC(=O)CNC(=O)[C@H](CCCCN)NC(=O)[C@H](CO)NC(=O)[C@H](CC(C)C)NC(=O)CNC(=O)[C@H](C)NC(=O)[C@H](CC(N)=O)NC(=O)[C@@H]2CCCN2C(=O)[C@H](Cc2c[nH]cn2)NC(=O)[C@H](CCC(=O)O)NC(=O)[C@H](CCC(N)=O)NC(=O)[C@H](CC(C)C)NC(=O)[C@H](CC(C)C)NC(=O)[C@H](CCCNC(=N)N)NC(=O)[C@H](C)NC(=O)[C@H](Cc2c[nH]c3ccccc23)NC(=O)[C@H](C)NC(=O)[C@H](C)N)CSSC[C@@H](C(=O)O)NC(=O)CNC(=O)[C@H](CC(C)C)NC(=O)CNC(=O)[C@H](CO)NC(=O)[C@H](CCSC)NC(=O)[C@H](CO)NC(=O)CNC1=O` [CA] (H-AAWARLLQEHPNAGLSKGCFGLKLDRIGSMSGLGC-OH; disulfide 19-35 (inferred); N-terminus and C-terminus assumed) the “NPR-B stimulation activity / cGMP production compared with wtCNP22 (in words)” value [1] was “comparable NPR-B stimulation activity as CNP22”.
In the case of `CC[C@H](C)[C@@H]1NC(=O)[C@H](CCCNC(=N)N)NC(=O)[C@H](CC(=O)O)NC(=O)[C@H](CC(C)C)NC(=O)[C@H](CCCCN)NC(=O)[C@H](CC(C)C)NC(=O)CNC(=O)[C@H](Cc2ccccc2)NC(=O)[C@@H](NC(=O)CNC(=O)[C@H](CCCNC(=N)N)NC(=O)[C@H](CO)NC(=O)[C@H](CC(C)C)NC(=O)CNC(=O)[C@H](CCCNC(=N)N)NC(=O)[C@H](CCCNC(=N)N)NC(=O)[C@H](CC(N)=O)NC(=O)[C@H](C)NC(=O)CNC(=O)CCOCCOCCOCCOCCOCCOCCOCCOCCOCCOCCOCCOCCOCCOCCOCCOCCOCCOCCOCCOCCOCCOCCOCCOC)CSSC[C@@H](C(=O)O)NC(=O)CNC(=O)[C@H](CC(C)C)NC(=O)CNC(=O)[C@H](CO)NC(=O)[C@H](CCSC)NC(=O)[C@H](CO)NC(=O)CNC1=O` [PEO24-GANRR-CNP22, K4R (CNP27)] ({MeO(CH2CH2O)23CH2CH2CO}-GANRRGLSRGCFGLKLDRIGSMSGLGC-OH; disulfide 11-27), the “plasma levels of cGMP compared with CNP22 (in words)” value [2] was “much higher plasma levels of cGMP at 30, 60 and 90 minutes than i.v. administration of CNP22”, the “plasma concentrations of cGMP compared with CNP22 (in words)” value [2] was “substantially higher plasma concentrations of cGMP than s.c. administration of CNP22” and the “NPR-B stimulation activity / cGMP production compared with wtCNP22 (in words)” value ([1]; listed as PEO24-CNP27(Arg4)) was “significantly greater cGMP production than PEO24-CNP22 and PEO24-CNP22(K4R); also recorded: substantially the same NPR-B stimulation activity as CNP22”.
